Measured values from PubChem BioAssay AID1347417 (National Center for Advancing Translational Sciences (NCATS), 2020).
Hit rate of the full screen: of about 120,000 compounds, about 5,300 (4.4%) were called active. The shares of active, inactive and inconclusive entries below differ from those in the screen. The call rests on the fitted dose curve; in most records, active means well fitted inhibition curve with a large enough effect; inconclusive means small, poorly fitted or top-dose-only effect; inactive means no such curve, though single readings can be large or run the other way. Potencies beside an inconclusive call are fits to weak or partial responses and may not hold up.
Potency means the concentration at half of the fitted maximal effect; tags describe the fitted curve by direction and shape.

Experiment: qHTS Primary assay for Inhibitors of Plasmodium falciparum Dd2 growth in vitro; further: nearly all actives have a fitted effect of over 65% in size;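 on activity, negative = inhibition: plate controls were DMSO vehicle for no effect and reference drug for full effect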
Details: P. falciparum Dd2 growth, SYBR Green, 72 h; activity, negative = inhibition: at 28.9 µM (top of the series) unless noted; series mostly up to 28.9 µM
Summary of the method: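 Infected erythrocytes (Dd2, 0.3% parasitemia, 2.5% hematocrit final) are added to compound in RPMI-1640/Albumax II medium, grown 72 h at 37C in low oxygen, then lysed with saponin/Triton-X containing SYBR Green and read by fluorescence.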
In the case of `Cc1ccc(NC(=O)C(Cc2c[nH]c3ccccc23)NC(=O)OC(C)(C)C)c(C)c1` (stereo not drawn), the Potency is reported as inconclusive: 8.91 µM [inhibitor, partial curve]. In the case of `COc1ccc(NC(=O)CCc2nc(C3=CCN(Cc4cccc(Cl)c4)CC3)no2)cc1OC`, the Potency is reported as inconclusive: 11.2 µM [inhibitor, single point]. With `CC(C)C(=O)N1CCN(c2nc3c(s2)CC(C(=O)NCc2ccco2)CC3)CC1` (stereo not drawn) the Potency was active: 12.6 µM. With `Cc1ccc(Nc2nc3nonc3nc2Nc2cccc(C(F)(F)F)c2)cc1Cl` the Potency was active: 1.12 µM. For `C[S+](=O)([O-])c1cccc(-c2ncc3c(n2)OCCN(Cc2ccccc2)C3=O)c1`, the Potency was inconclusive: 10 µM [inhibitor, partial curve]. For `CCOC(=O)C1=C(CN2CCN(c3ccc(OC)cc3)CC2)NC(=O)NC1c1ccc(OC)cc1` (stereo not drawn), the Potency was inconclusive: 17.8 µM [inhibitor, single point]. With `CCN(CC)CCCNc1oc(/C=C/c2ccc(OC)c(OC)c2)nc1C#N` the Potency was active: 2.51 µM. With `Cc1noc(C)c1-c1cc2cc(C(C)C)oc2c(NC2CCN(C)CC2)n1` the Potency was active: 10 µM. For `CCN(CC)C(=O)Cn1c(=O)cc(C)c2c(C)nn(-c3cccc(Cl)c3C)c21`, the “activity, negative = inhibition” value was inactive: 9.24%. For `O=C(COc1ccccc1Cl)N1CCCC(O)(CN2CCCC2)C1` (stereo not drawn), the Potency was inconclusive: 10 µM [inhibitor, partial curve, poor fit]. For `Cn1cc(-c2ccc(O)c(F)c2)c2nc(COc3ccc(Cl)cc3)cn2c1=O`, the Potency was active: 10 µM. For `COc1ccc(-c2ccccc2)cc1N1C(=O)[C@@H]2C[C@H]1CN2Cc1nc[nH]c1C`, the Potency was inconclusive: 11.2 µM [inhibitor, partial curve, poor fit]. For `COCCCN1C(=O)CC[C@H]2CN(C(=O)Cn3cccnc3=O)CC[C@H]21`, the “activity, negative = inhibition” value was inactive: -9.68%. For `O=[S+]([O-])(c1cccc(C(F)(F)F)c1)N1CC(CNc2cccnc2)C2(CN(c3ccccc3)C2)C1` (stereo not drawn), the Potency was inconclusive: 1.41 µM [inhibitor, partial curve, poor fit]. In the case of `CCOC(=O)c1cc(-c2ccccc2)n(-c2cccc(C(=O)Nc3cccc(SC)c3)c2)c1C`, the Potency is reported as inconclusive: 17.8 µM [inhibitor, single point]. For `Cc1ccc(-c2nn3c(-c4ccccc4C)nnc3c3ccccc23)cc1`, the Potency was inconclusive: 2.82 µM [inhibitor, full curve, poor fit]. With `CC(C)(C)c1ccc(C(=O)Nc2nc3c(s2)C[C@@H]2[C@](C)(CO)[C@H](O)CC[C@@]2(C)[C@@H]3CC(=O)NC2CC2)cc1` the Potency was inconclusive: 10 µM [inhibitor, partial curve, poor fit]. In the case of `Nc1ccc(CN2CCCC3(Cc4ccccc4CNC3=O)C2)cc1` (stereo not drawn), the Potency is reported as inconclusive: 7.94 µM [inhibitor, partial curve]. With `CC1CCc2c(sc(NC(=O)Cc3ccccc3)c2C(=O)Nc2ccc(Cl)cc2)C1` (stereo not drawn) the Potency was active: 10 µM. In the case of `CCCN1CCC2(CCN(C(=O)c3cccc(Cl)c3)CC2)Oc2ccccc21`, the Potency is reported as inconclusive: 1 µM [inhibitor, full curve]. For `COc1ccc(CN2C[C@H](O)C[C@H]2c2nc(-c3ccc(C)c(F)c3)no2)cc1`, the “activity, negative = inhibition” value was inactive: -6.14% [at 44.1 µM]. With `O=C(Cn1ncc2c([nH]c3ccccc32)c1=O)NCCCN1CCN(c2ccc(F)cc2)CC1` the Potency was inconclusive: 11.2 µM [inhibitor, single point]. In the case of `Cc1ccc(CN2CCC3(CC2)Cc2ccccc2CNC3=O)cc1C`, the Potency is reported as inconclusive: 8.91 µM [inhibitor, single point]. For `O=C1N(C2CCCCC2)C[C@H]2CN(S(=O)(=O)c3ccc(F)cc3)CCN12`, the “outcome” value was “inactive [at 44.1 µM]”. In the case of `C=CCNC(=O)N[C@H]1CO[C@H]2[C@@H]1OC[C@@H]2Nc1nccc(-c2ccc(OC)cc2)n1`, the Potency is reported as inconclusive: 22.4 µM [inhibitor, partial curve, poor fit]. For `Cc1cccc(NC(=O)C2CCCCC(=O)N2)c1` (stereo not drawn), the “activity, negative = inhibition” value was inactive: -9.49%. For `CCn1cc(C(=O)N(C)Cc2ccccc2)c(=O)c2cc(S(=O)(=O)N3CCc4ccccc4C3)ccc21`, the Potency was inconclusive: 10 µM [inhibitor, partial curve, poor fit]. In the case of `COc1cc(C)ccc1OCCSc1nc2ccc(NC(=O)c3ccco3)cc2s1`, the Potency is reported as active: 4.47 µM. With `O=C(C1CC1)N1CCC(N2CC(OCC3CC3)C23CCOCC3)CC1` (stereo not drawn) the Potency was inconclusive: 17.8 µM [inhibitor, single point]. For `O=C(NC[C@H]1O[C@@H](CC(=O)N2CCN(c3ccccc3)CC2)[C@H](O)[C@@H]1O)c1ccc(F)c(Cl)c1`, the “activity, negative = inhibition” value was inactive: 17.5%. With `COc1ccc(CNC(=O)c2cc3c(s2)CCN(C(=O)c2ccccc2)C3)cc1OC` the Potency was inconclusive: 14.1 µM [inhibitor, partial curve, poor fit]. For `CN(C)C[C@@H]1CN(c2ccncn2)C[C@H]1NC(=O)COc1ccc(F)cc1`, the Potency was inconclusive: 3.98 µM [inhibitor, single point]. With `O=C(CCc1c[nH]c2ccccc12)N1CCC(N2C(=O)C(O)C23CCCCC3)CC1` (stereo not drawn) the Potency was inconclusive: 11.2 µM [inhibitor, single point]. In the case of `O=C1Nc2ccccc2O[C@H]2C[C@@H]1N(Cc1ccccc1Cl)C2`, the Potency is reported as inconclusive: 31.6 µM [inhibitor, single point]. With `COc1cc(OC)cc(C(=O)N2CCCC(c3noc(COc4ccccc4)n3)C2)c1` (stereo not drawn) the Potency was inconclusive: 10 µM [inhibitor, single point]. With `COc1ccc(NC(=O)c2ccco2)cc1NC(=O)COc1ccc(C)c(C)c1` the Potency was inconclusive: 17.8 µM [inhibitor, single point]. For `COc1ccccc1OCc1cc(C(=O)N2CCCN3CCC[C@H]3C2)n[nH]1`, the “outcome” value was “inactive”. For `Cc1ccc(C(=O)c2cn(Cc3cccc(Cl)c3)c3nc(C)ccc3c2=O)cc1`, the Potency was inconclusive: 11.2 µM [inhibitor, single point]. With `CN(Cc1ccc(-n2cccn2)cc1)CC1CCN(CCc2ccc(F)cc2)CC1` the Potency was inconclusive: 1.58 µM [inhibitor, partial curve]. With `CCc1ccc(NC(=O)CSc2ccnc(=O)[nH]2)cc1` the “outcome” value was “inactive”. In the case of `CCN1C(=O)CCc2cc(NC(=O)c3cccc(C#N)c3)ccc21`, the “activity, negative = inhibition” value is reported as inactive: -4.05%. In the case of `Cc1nn(C)c(C)c1S(=O)(=O)N(CC(=O)NCCc1ccccc1)c1ccc(C(C)C)cc1`, the Potency is reported as inconclusive: 2.82 µM [inhibitor, full curve, poor fit]. With `CCN(CC)C(=O)C[C@@H]1CCNC[C@@H]1Cc1cc(CC2CCCCC2)on1` the Potency was inconclusive: 5.01 µM [inhibitor, single point]. In the case of `O=C1NC(=NC2CCCCC2)C2(CCCN(CC3CC3)C2)N1c1cccnc1` (stereo not drawn), the Potency is reported as inconclusive: 10 µM [inhibitor, single point]. In the case of `COc1cc(OC)cc(-c2cc3nc(C)c(CCC(=O)NCCc4cccc(C)c4)c(C)n3n2)c1`, the Potency is reported as inconclusive: 17.8 µM [inhibitor, single point]. In the case of `CN(C)c1ccc(CN2CCC3(CC2)C(=O)Nc2ccccc23)cc1`, the Potency is reported as inconclusive: 10 µM [inhibitor, single point]. For `COc1cc(NC(=O)Cn2nc(C(F)(F)F)c3c2CCC3)cc(OC)c1OC`, the Potency was inconclusive: 17.8 µM [inhibitor, single point]. In the case of `Cc1ccc(C)c2c(C)c(C(=O)N3CCCC(O)(CN4CCCC4)C3)[nH]c12` (stereo not drawn), the Potency is reported as active: 11.2 µM. In the case of `COc1ccc(OC)c(CNC(=O)c2ccc(N3Cc4ccccc4Oc4ncccc43)s2)c1`, the Potency is reported as inconclusive: 11.2 µM [inhibitor, single point]. In the case of `O=C1CC(c2nc(-c3ccc4nc[nH]c4c3)no2)CN1Cc1cccnc1` (stereo not drawn), the Potency is reported as inconclusive: 10 µM [inhibitor, partial curve, poor fit]. For `CCOc1ccccc1NC(=O)C1CCN(S(=O)(=O)c2c(C)noc2/C=C/c2ccco2)CC1`, the Potency was inconclusive: 0.794 µM [inhibitor, full curve, poor fit]. In the case of `Cc1cccc(Cn2cc(S(=O)(=O)c3cccc(Cl)c3)c(=O)c3cc(F)c(N4CCOCC4)cc32)c1`, the Potency is reported as inconclusive: 10 µM [inhibitor, single point]. For `O=C1NC(C(=O)NCc2ccc(Cl)cc2)Cn2cccc21` (stereo not drawn), the “activity, negative = inhibition” value was inactive: 40.9%. For `COc1cccc(C(=O)N2CCC(N3C[C@H](O)C[C@H]3C(=O)NCc3ccccc3F)CC2)c1`, the Potency was inconclusive: 15.8 µM [inhibitor, single point]. For `CC(=O)N1CCC([C@@H]2CN(Cc3ccccc3C(F)(F)F)C[C@H]2CO)CC1`, the Potency was inconclusive: 11.2 µM [inhibitor, single point]. For `COc1ccc(CC(=O)Nc2c(C(=O)N3CCN(c4ccccc4)CC3)oc3ccccc23)cc1OC`, the Potency was inconclusive: 10 µM [inhibitor, single point]. For `COCCn1c(SCC(=O)Nc2cc(Cl)ccc2OC)nc2c([nH]c3ccccc32)c1=O`, the Potency was inconclusive: 14.1 µM [inhibitor, single point]. With `CC1(C(=O)NCCCn2ccnc2)CCCc2cnc(Nc3ccccc3)nc21` (stereo not drawn) the Potency was inconclusive: 2.51 µM [inhibitor, single point]. In the case of `O=C1NCCCCCCN(C(=O)COc2ccccc2)[C@H]2CCCC[C@@H]12`, the “activity, negative = inhibition” value is reported as inactive: -25%. In the case of `CN1CCN(C(=O)[C@@H]2CCC[C@@H](NC(=O)c3nc4ccccc4s3)CN(C)C(=O)C2)CC1`, the “activity, negative = inhibition” value is reported as inactive: 5.13%. With `Cc1oc(-c2ccccc2Cl)nc1CN1C(=O)CN=C(c2ccccc2)c2cc(Cl)ccc21` the “activity, negative = inhibition” value was inactive: -12.4%. In the case of `CC(C)c1noc(C2CCCN(C(=O)C3CCCCC3)CCC(=O)NCC2)n1` (stereo not drawn), the “activity, negative = inhibition” value is reported as inactive: -16.1%. In the case of `O=C(CCCn1c2ccccc2c(=O)c2ccccc21)Nc1cccc(Cl)c1`, the Potency is reported as inconclusive: 11.2 µM [inhibitor, single point].
